These are yes or no findings as the source states them, for the method shown. In cells and extracts the contact can be indirect. Some results given as binding are weak or reduced against the parent protein; the word gives no strength.

Sequences of proteins named here, by UniProt entry; tags and fusion partners are left off. A change or cut given only in a name is not applied to a line headed by its entry. A line that says so, or that is headed by a name, gives the form on record, which may keep a tag or linker.
UniProt P03148: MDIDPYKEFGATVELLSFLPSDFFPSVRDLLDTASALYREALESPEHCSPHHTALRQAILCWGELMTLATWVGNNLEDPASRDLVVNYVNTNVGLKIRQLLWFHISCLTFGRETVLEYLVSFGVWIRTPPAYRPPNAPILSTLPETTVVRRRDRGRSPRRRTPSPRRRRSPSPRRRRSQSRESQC
UniProt Q9BQA1: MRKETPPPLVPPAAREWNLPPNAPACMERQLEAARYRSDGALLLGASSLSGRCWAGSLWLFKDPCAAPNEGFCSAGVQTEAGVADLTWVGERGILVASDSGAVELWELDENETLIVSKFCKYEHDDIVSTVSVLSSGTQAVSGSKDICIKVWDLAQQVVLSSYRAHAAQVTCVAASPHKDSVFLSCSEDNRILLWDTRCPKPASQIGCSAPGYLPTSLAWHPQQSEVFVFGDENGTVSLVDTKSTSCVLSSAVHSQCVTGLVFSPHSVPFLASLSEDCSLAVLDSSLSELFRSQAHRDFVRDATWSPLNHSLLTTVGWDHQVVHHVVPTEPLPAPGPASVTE
UniProt O60678: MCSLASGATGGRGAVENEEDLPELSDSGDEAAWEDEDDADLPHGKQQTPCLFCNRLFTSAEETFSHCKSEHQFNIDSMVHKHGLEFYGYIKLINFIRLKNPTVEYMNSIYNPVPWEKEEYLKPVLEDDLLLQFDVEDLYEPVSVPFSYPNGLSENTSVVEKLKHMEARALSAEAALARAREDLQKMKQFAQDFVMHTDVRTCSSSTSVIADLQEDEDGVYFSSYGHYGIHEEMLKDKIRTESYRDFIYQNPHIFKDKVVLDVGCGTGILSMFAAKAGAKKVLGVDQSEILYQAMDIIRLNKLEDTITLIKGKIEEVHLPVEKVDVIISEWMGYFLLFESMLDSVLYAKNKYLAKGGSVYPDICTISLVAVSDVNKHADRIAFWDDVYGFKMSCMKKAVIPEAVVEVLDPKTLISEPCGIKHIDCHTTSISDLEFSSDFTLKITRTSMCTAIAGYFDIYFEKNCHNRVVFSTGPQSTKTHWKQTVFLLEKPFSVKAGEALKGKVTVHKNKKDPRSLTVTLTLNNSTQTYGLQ
UniProt Q99873: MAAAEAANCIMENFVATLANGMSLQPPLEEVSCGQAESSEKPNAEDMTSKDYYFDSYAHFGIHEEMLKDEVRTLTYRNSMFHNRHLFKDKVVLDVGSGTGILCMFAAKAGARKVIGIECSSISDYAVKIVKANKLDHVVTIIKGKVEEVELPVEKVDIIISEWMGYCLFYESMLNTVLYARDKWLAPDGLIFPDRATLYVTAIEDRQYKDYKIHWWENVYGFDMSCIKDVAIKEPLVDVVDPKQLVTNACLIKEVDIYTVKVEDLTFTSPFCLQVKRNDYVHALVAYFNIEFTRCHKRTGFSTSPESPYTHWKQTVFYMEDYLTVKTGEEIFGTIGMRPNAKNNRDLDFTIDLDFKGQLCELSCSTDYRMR
UniProt O14744: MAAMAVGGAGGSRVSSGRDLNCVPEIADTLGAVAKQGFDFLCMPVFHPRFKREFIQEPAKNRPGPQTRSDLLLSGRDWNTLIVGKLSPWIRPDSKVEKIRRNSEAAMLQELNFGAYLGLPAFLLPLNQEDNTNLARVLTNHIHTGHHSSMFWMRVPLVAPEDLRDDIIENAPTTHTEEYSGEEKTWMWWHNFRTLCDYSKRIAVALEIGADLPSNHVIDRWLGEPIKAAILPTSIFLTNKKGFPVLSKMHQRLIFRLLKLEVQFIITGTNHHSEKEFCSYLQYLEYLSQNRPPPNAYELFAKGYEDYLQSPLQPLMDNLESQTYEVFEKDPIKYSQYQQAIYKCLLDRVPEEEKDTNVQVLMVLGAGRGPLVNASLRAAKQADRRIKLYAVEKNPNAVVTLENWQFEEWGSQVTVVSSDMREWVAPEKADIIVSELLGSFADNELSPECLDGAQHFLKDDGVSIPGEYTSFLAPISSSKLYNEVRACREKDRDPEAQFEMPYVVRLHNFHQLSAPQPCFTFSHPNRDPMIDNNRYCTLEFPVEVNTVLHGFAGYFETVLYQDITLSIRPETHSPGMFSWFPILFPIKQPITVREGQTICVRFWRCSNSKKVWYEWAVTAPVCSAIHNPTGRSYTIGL
PRMT5v2 (PRMT5 splice variant 2, isoform b), Flag-tagged, expressed in HEK293T cells (O14744-2, form named): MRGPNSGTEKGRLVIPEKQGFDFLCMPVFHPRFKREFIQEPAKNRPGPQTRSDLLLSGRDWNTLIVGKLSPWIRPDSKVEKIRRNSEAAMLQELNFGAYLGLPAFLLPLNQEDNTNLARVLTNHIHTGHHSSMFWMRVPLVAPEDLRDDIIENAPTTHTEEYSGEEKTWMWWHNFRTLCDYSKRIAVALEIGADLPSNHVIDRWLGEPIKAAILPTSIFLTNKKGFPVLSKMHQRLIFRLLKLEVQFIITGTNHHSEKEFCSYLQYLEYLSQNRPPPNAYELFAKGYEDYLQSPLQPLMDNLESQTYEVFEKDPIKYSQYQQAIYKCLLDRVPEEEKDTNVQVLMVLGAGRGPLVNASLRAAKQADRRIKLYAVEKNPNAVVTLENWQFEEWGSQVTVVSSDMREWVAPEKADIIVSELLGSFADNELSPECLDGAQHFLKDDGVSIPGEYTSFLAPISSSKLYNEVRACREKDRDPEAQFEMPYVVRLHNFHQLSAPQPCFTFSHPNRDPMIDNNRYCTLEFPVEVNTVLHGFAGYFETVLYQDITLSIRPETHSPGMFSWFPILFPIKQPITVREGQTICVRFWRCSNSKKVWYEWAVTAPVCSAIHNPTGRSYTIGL

Experiment [1] addresses GST-HBc (full-length HBV core protein, aa 1-185, genotype A, subtype adw2, fused to GST) (Hepatitis B virus, genotype A, subtype adw2) (UniProt P03148). Kind of experiment: pull-down; lysates of HEK293T cells transfected with Flag-tagged PRMTs or MEP50 incubated with GST-HBc, GST-HBc-ΔC or GST alone on glutathione-Sepharose beads; Western blot with anti-Flag; only the target purified. A general note: A western blot detects proteins with antibodies after separation by electrophoresis.

Experiment [2] deals with MEP50/WDR77 (methylosome protein 50), Flag-tagged, expressed in HEK293T cells (human) (UniProt Q9BQA1). Kind of experiment: co-IP; HEK293T cells co-transfected with Flag-tagged PRMTs or MEP50 and HBc-V5/AP; lysates (400 μg) in 20 mM HEPES pH 7.9, 50 mM NaCl, 5 mM EDTA, 1% Igepal CA-630, 10% glycerol; IP with anti-Flag magnetic beads at 4°C overnight; HBc detected with NeutrAvidin-HRP.

Experiment [3] concerns the target PRMT3, Flag-tagged, expressed in HEK293T cells (human) (UniProt O60678). The description is as above.
Experiment [4] addresses PRMT1, Flag-tagged, expressed in HEK293T cells (human) (UniProt Q99873). The experiment is described as above.
Experiment [5] has as its target GST-HBc (full-length HBV core protein, aa 1-185, genotype A, subtype adw2, fused to GST) (Hepatitis B virus, genotype A, subtype adw2) (UniProt P03148). Kind of experiment: pull-down; GST-HBc or GST alone (0.5 μg) on glutathione-Sepharose beads incubated with 3 to 10 μl of in vitro translated Flag-tagged proteins in binding buffer (10 mM Tris pH 7.6, 100 mM NaCl, 0.1 mM EDTA, 1 mM DTT, 5 mM MgCl2, 0.5% Igepal CA-630, 8% glycerol), 4°C, 3 h; Western blot with anti-Flag; only the target purified.

Turning to “PRMT5v2 (PRMT5 splice variant 2, isoform b), Flag-tagged, expressed in HEK293T cells (from UniProt O14744-2 1-620) (enzyme)”, the binding entry in experiment [1] is listed as “binds”. The same measure, in the same setting: under “MEP50/WDR77 (methylosome protein 50), Flag-tagged, expressed in HEK293T cells (from UniProt Q9BQA1 1-342)” stands “binds”. As for “HBc-V5/AP (full-length HBc, aa 1-185, genotype A, subtype adw2, with V5 tag and AP tag) (from UniProt P03148 1-185)”, the values for the binding entry in experiment [2], in experiment [3] and in experiment [4] were “binds”, “binds weakly” and “no binding”, respectively. “PRMT5v1 (PRMT5 splice variant 1, isoform a), Flag-tagged, in vitro translated (from UniProt O14744 1-637) (enzyme)”: the binding entry in experiment [5] is “binds”. Still for that read-out and setting: for “MEP50/WDR77 (methylosome protein 50), Flag-tagged, in vitro translated (from UniProt Q9BQA1 1-342)” the value was “binds”. For the substance “PRMT5v1 (PRMT5 splice variant 1, isoform a), Flag-tagged, expressed in HEK293T cells (from UniProt O14744 1-637) (enzyme)”, the binding entry in experiment [1] is given as “binds”. Consider “PRMT1, Flag-tagged, in vitro translated (from UniProt Q99873 1-371) (enzyme)”, for which, in experiment [5], the binding result is on record as “no binding”.

For the origin of these results see article PMC5655436.
